# The supplement of paper PMC9446081
# Screen size: about 39,000 compounds; about 220 (0.56%) showed activity. The list shows a part of the results.
# System: Escherichia coli K-12 BW25113
# Assay: relative growth (OD600 normalised to plate interquartile mean) (fraction); higher = less growth inhibition, active = 0.2 or less
# Settings: 50 µM; LB; incubation time: overnight (16-24 h)
# 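Note: static incubation at 37 °C against the wild-type strain, values averaged over two biological replicates.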
row,SMILES,relative growth
1,Cc1noc(C)c1S(=O)(=O)Nc1ccc2c(c1)CC(=O)N([C@H](C)CO)C[C@@H](C)[C@@H](CN(C)S(=O)(=O)c1cn(C)cn1)O2,inactive: 1.01
2,Cc1ccc(S(=O)(=O)N(C)C[C@@H]2Oc3ncc(-c4ccncc4)cc3C(=O)N([C@@H](C)CO)C[C@H]2C)cc1,inactive: 1.01
3,Cc1noc(C)c1S(=O)(=O)Nc1ccc2c(c1)CC(=O)N([C@@H](C)CO)C[C@H](C)[C@H](CN(C)S(=O)(=O)c1c(C)noc1C)O2,inactive: 1.02
4,C=CCNC(=O)[C@@H]1[C@H]2C(=O)O[C@H](c3ccccc3)[C@H](c3ccccc3)N2[C@H](c2ccc(OCCO)cc2)[C@@]12C(=O)Nc1ccc(C#Cc3ccc(OC)cc3)cc12,inactive: 1.06
5,O=C(CCCCCCC(=O)Nc1ccc([C@H]2O[C@@H](CSc3nc4ccccc4o3)C[C@H](c3ccccc3)O2)cc1)NO,inactive: 0.972
6,C[C@H]1CCCCO[C@H](CN(C)Cc2ccc(Cl)c(Cl)c2)[C@@H](C)CN([C@@H](C)CO)C(=O)c2cc(NC(=O)CCC(F)(F)F)ccc2O1,inactive: 1.06
7,OC[C@@H]1CC[C@@H]2O[C@H](CCc3ccc(C#CCc4ccccc4)cc3)[C@H](n3cc(-c4ccccc4)nn3)C[C@@H]2O1,inactive: 1.03
8,C[C@@H]1CCCCO[C@@H](CN(C)S(C)(=O)=O)[C@@H](C)CN([C@H](C)CO)C(=O)c2cc(NS(=O)(=O)c3cn(C)cn3)ccc2O1,inactive: 1.01
9,C[C@@H]1CN([C@H](C)CO)C(=O)c2cc(NC(=O)Nc3ccccc3)ccc2O[C@@H](C)CCCCO[C@@H]1CN(C)C(=O)Cc1ccccc1,inactive: 1
10,c1ccc([C@@H]2CCC[C@H](c3ccccc3)S2)cc1,inactive: 1.02
11,COCC(=O)N(C)C[C@@H]1Oc2cc(C#CCN(C)C)ccc2S(=O)(=O)N([C@H](C)CO)C[C@H]1C,inactive: 1
12,COc1ccc(S(=O)(=O)Nc2ccc3c(c2)C(=O)N([C@@H](C)CO)C[C@H](C)[C@H](CN(C)Cc2ccc(C(F)(F)F)cc2)OCCCC[C@@H](C)O3)cc1,inactive: 1.05
13,CC(=O)N(C[C@@H](O)CO)c1c(I)c(C(=O)NC[C@@H](O)CO)c(I)c(C(=O)NC[C@@H](O)CO)c1I,inactive: 0.978
14,C[C@@H]1CN([C@H](C)CO)S(=O)(=O)c2ccc(C#CC3(O)CCCC3)cc2O[C@@H]1CN(C)C(=O)Nc1ccc(F)cc1,inactive: 0.975
15,C[C@@H]1CCCCO[C@@H](CN(C)CC2CCCCC2)[C@H](C)CN([C@H](C)CO)C(=O)c2cc(NC(=O)Cc3ccccc3)ccc2O1,inactive: 0.96
16,CC(C)(C)OC(=O)N1CC[C@H](c2cn(-c3ccc(C(F)(F)F)cc3)nn2)[C@@H]1C(=O)Nc1cccc2cccnc12,inactive: 1.03
17,C[C@@H]1CCCCO[C@H](CN(C)C(=O)Nc2ccc3c(c2)OCO3)[C@H](C)CN([C@@H](C)CO)C(=O)c2cc(NS(=O)(=O)c3ccccc3)ccc2O1,inactive: 1.03
18,CC12CCCC(O)(C1)C1CC(C)(C)C1CC2 (stereo not drawn) [beta-CARYOPHYLLENE ALCOHOL],inactive: 1.1
19,CC(C)C#Cc1cnc2c(c1)C(=O)N([C@@H](C)CO)C[C@@H](C)[C@H](CN(C)C(=O)c1ccc3c(c1)OCO3)O2,inactive: 1.01
20,C[C@H]1CN([C@@H](C)CO)C(=O)c2cc(C#CCN(C)C)cnc2O[C@@H]1CN(C)C(=O)Nc1cccc(F)c1,inactive: 0.993

row,SMILES,relative growth
1,C[C@H](O)C#Cc1ccc2c(c1)O[C@H](CN(C)C)[C@@H](C)CN([C@@H](C)CO)S2(=O)=O,inactive: 1.04
2,C[C@@H]1CN([C@H](C)CO)C(=O)Cc2cc(NC(=O)CCCN(C)C)ccc2O[C@@H]1CN(C)S(=O)(=O)c1ccccc1,inactive: 1.01
3,C[C@H]1CCCCO[C@H](CN(C)C(=O)Nc2ccccc2)[C@@H](C)CN([C@@H](C)CO)C(=O)c2cc(NS(=O)(=O)c3ccc(Cl)cc3)ccc2O1,inactive: 0.998
4,CN1c2ccccc2[C@@H](NCCCCCCC(=O)Nc2ccccc2N)c2ccc(Cl)cc2S1(=O)=O,inactive: 1.01
5,COc1ccc(COC[C@@]23Oc4ccccc4[C@@H](NC(=O)N2C(=O)c2ccccc2)[C@H]3CO[Si](C)(C)C(C)(C)C)cc1,inactive: 1.04
6,C[C@@H]1CCCCO[C@@H](CN(C)CC2CCCCC2)[C@H](C)CN([C@H](C)CO)C(=O)c2cc(NC(=O)Nc3cccc4ccccc34)ccc2O1,inactive: 0.961
7,CCCNC(=O)N[C@H]1CC[C@H](CC(=O)N2CCN(C)CC2)O[C@H]1CO,inactive: 1.02
8,Cc1cc(=O)oc2c(O)c(O)ccc12,inactive: 1.06
9,Cc1noc(C)c1NC(=O)Nc1ccc2c(c1)C(=O)N([C@@H](C)CO)C[C@H](C)[C@H](CN(C)Cc1ccc(C(=O)Nc3ccccc3N)cc1)O2,inactive: 0.977
10,O=C([C@H]1[C@H](CO)[C@H]2Cn3c(cccc3=O)[C@H]2N1C(=O)C1CCCC1)N1CCOCC1,inactive: 0.994
11,COC(=O)[C@@H](N)CS[C@H]1CCCCO1,inactive: 0.998
12,COc1ccc(CN(C)C[C@@H]2OCCCC[C@@H](C)Oc3ccc(NC(=O)NC4CCCCC4)cc3C(=O)N([C@@H](C)CO)C[C@@H]2C)cc1,inactive: 0.96
13,C[C@H](CO)N1C[C@H](C)[C@@H](CN(C)Cc2ccc(Cl)c(Cl)c2)Oc2c(NC(=O)Nc3ccccc3)cccc2C1=O,inactive: 0.953
14,COc1ccccc1-c1ccc2c(c1)O[C@@H](CN(C)CC1CCOCC1)[C@H](C)CN([C@@H](C)CO)S2(=O)=O,inactive: 0.976
15,CC(C)(C)c1ccc(C(O)CCCN2CCC(C(O)(c3ccccc3)c3ccccc3)CC2)cc1 (centres undefined),inactive: 0.888
16,O=C(C[C@H]1CC[C@H]2[C@@H](COC[C@@H](O)CN2Cc2ccccc2F)O1)N[C@H]1CCN(Cc2ccccc2)C1,inactive: 1.01
17,O=C(O)[C@@H]1CCCCN1,inactive: 1.03
18,COc1ccc(NC(=O)N(C)C[C@@H]2OCCCC[C@@H](C)Oc3ccc(NC(=O)Nc4c(C)noc4C)cc3C(=O)N([C@H](C)CO)C[C@@H]2C)cc1,inactive: 0.995
19,CC(C)[N+]1(C)C2CCC1CC(OC(=O)C(CO)c1ccccc1)C2.[Br-] (centres undefined),inactive: 1.17
20,COc1ccc(NC(=O)Nc2ccc3c(c2)C(=O)N([C@@H](C)CO)C[C@H](C)[C@@H](CN(C)CC2CCCCC2)O3)cc1,inactive: 0.959

row,SMILES,relative growth
1,CC(C)=CCC/C(C)=C/C(=O)O,inactive: 0.7
2,COc1cccc(-c2ccc3n(c2=O)C[C@H]2[C@H](CO)[C@@H](C(=O)NCC4CC4)[C@@H]3N2S(C)(=O)=O)c1,inactive: 1.01
3,CC1=C(C(=O)O)N2C(=O)[C@@H](NC(=O)[C@@H](N)c3ccc(O)cc3)[C@H]2SC1,inactive: 0.999
4,C[C@@H]1CCCCO[C@H](CN(C)Cc2ccncc2)[C@H](C)CN([C@H](C)CO)C(=O)c2cc(NC(=O)Nc3ccc(F)cc3)ccc2O1,inactive: 0.99
5,O=C(CN1CCOCC1)NCC[C@H]1CC[C@@H](NC(=O)c2ccc3c(c2)OCO3)[C@@H](CO)O1,inactive: 0.99
6,C[C@@H]1O[C@@H](O[C@H]2[C@H](O[C@H]3[C@H](O)[C@@H](O[C@@H]4O[C@H](CO)[C@@H](O[C@@H]5O[C@H](CO)[C@H](O)[C@H]5O)[C@H](O)[C@H]4O)[C@H](O[C@H]4CC[C@]5(C)[C@H]6CC[C@]78OC[C@@]9(CCC(C)(C)C[C@@H]97)[C@H](O)C[C@@]8(C)[C@]6(C)CC[C@H]5C4(C)C)O[C@@H]3C(=O)O)O[C@H](CO)[C@H](O)[C@@H]2O)[C@H](O)[C@H](O)[C@H]1O,inactive: 0.973
7,C[C@H](CO)N1C[C@H](C)[C@@H](CN(C)Cc2ccc(Cl)c(Cl)c2)Oc2ccc(NC(=O)CCC(F)(F)F)cc2CC1=O,inactive: 0.999
8,C[C@@H]1CCCCO[C@@H](CN(C)C(=O)c2ccccc2)[C@H](C)CN([C@@H](C)CO)C(=O)c2cc(NC(=O)Nc3ccccc3)ccc2O1,inactive: 0.992
9,CN(C)CCN(Cc1cccs1)c1ccccn1.Cl,inactive: 0.976
10,COc1ccc(C#Cc2ccc3c(c2)O[C@H](CN(C)S(=O)(=O)c2ccccc2F)[C@@H](C)CN([C@@H](C)CO)S3(=O)=O)cc1,inactive: 0.998
11,N[C@@H](Cn1ccc(=O)c(O)c1)C(=O)O,inactive: 0.752
12,C[C@@H]1CN([C@H](C)CO)C(=O)c2cc(NS(=O)(=O)c3ccc(F)cc3)ccc2O[C@@H]1CN(C)S(=O)(=O)c1ccc(F)cc1,inactive: 0.974
13,C[C@H]1CN([C@@H](C)CO)C(=O)c2cccc(NC(=O)C3CCCCC3)c2O[C@@H]1CN(C)C(=O)Nc1cccc2ccccc12,inactive: 0.966
14,CC(C)(C)c1cc(CN)n[nH]1,inactive: 1.02
15,C[C@H](CO)N1C[C@H](C)[C@@H](CN(C)Cc2ccc(C(F)(F)F)cc2)OCCCC[C@H](C)Oc2ccc(NC(=O)c3ccccc3)cc2C1=O,inactive: 0.978
16,COc1ccc2c3c(n(c2c1)C)[C@@H](CO)N(CC1CCOCC1)C[C@]13CCN(CC1)C(=O)c1cnccn1,inactive: 0.998
17,Cc1noc(C)c1S(=O)(=O)Nc1ccc2c(c1)C(=O)N([C@H](C)CO)C[C@@H](C)[C@H](CN(C)S(=O)(=O)c1cn(C)cn1)O2,inactive: 0.992
18,C[C@@H]1CN([C@@H](C)CO)C(=O)c2cc(NC(=O)CCC(F)(F)F)ccc2O[C@H]1CN(C)S(C)(=O)=O,inactive: 0.994
19,COc1ccc2c3c(n(c2c1)C)[C@H](CO)N(C[C@]13CN(Cc2ccncc2)C1)C(=O)CN1CCOCC1,inactive: 0.996
